Data from PubChem BioAssay AID686979 (National Center for Advancing Translational Sciences (NCATS), 2013).
About 50,000 (12%) of roughly 420,000 compounds were called active. The inconclusive results got no clear call from the source; some entries with a clear call stand among them for comparison. Calls come from the whole dose curve; as a rule, active = well fitted inhibition curve with a large enough effect; inconclusive = small, poorly fitted or top-dose-only effect; inactive = flat fitted curve, though single readings scatter. No potency is given beside an inconclusive call; the fits are too rough. Some compounds were tested as several samples or in several runs, with calls that do not always agree.

Assay: qHTS for Inhibitors of human tyrosyl-DNA phosphodiesterase 1 (TDP1): qHTS in cells in presence of CPT; note: nearly all actives have a fitted effect of over 55% in size
Conditions: chicken DT40 Tdp1-/-;hTDP1 cells + 20 nM CPT, ATP luminescence, 48 h; activity change, negative = growth inhibition: at 46.2 µM (top of the series) unless noted
Method in brief: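 Chicken DT40 Tdp1-/- cells stably complemented with human TDP1 were seeded at 400 cells/well in medium containing 20 nM camptothecin, exposed to pin-transferred compounds, and grown at 37 °C for at least 48 hr. Viability was read as ATP luminescence.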
% is set by controls: 0 for no effect and ±100 for the full control effect; potency is the fitted concentration of half-maximal effect; tags give direction and shape of the fitted curve.

Row | SMILES | Potency | activity change, negative = growth inhibition
1 | COC(=O)c1ccc2nc(-c3ccc(OC)c(OC)c3)c(Cc3ccc(OC)cc3C)n2c1 | inconclusive [inhibitor, single point] | –
2 | COc1ccc(-c2nnc(NC(=O)c3ccc(S(=O)(=O)N4CCCc5ccccc54)cc3)o2)cc1 | active: 3.16 µM | –
3 | CSc1ccc(-c2nc3cccc(C)n3c2Nc2ccc3c(c2)OCO3)cc1 | inconclusive [inhibitor, single point] | –
4 | O=C(CSc1cccc2cccnc12)N/N=C/c1ccc(F)cc1 | inactive | –
5 | CCNC(=O)NC(=O)C(C)Oc1ccc(Br)cc1Br (stereo not drawn) | inactive | –
6 | Cc1[nH]c2ccccc2c1C1(O)C(=O)N(Cc2ccccc2)c2ccc(Cl)cc21 (stereo not drawn) | active: 6.51 µM | –
7 | CC(=O)c1cccc(NC(=O)C2CCCN(S(=O)(=O)c3cccc4cccnc34)C2)c1 (stereo not drawn) | active: 20.6 µM | –
8 | CSc1ncccc1C(=O)OCc1ccc(Br)cc1 | inactive | –
9 | Cc1noc(C)c1COC(=O)c1cccnc1SCC(=O)Nc1ccc2c(c1)OCO2 | inconclusive [inhibitor, single point] | –
10 | CN(CC#CCC(c1ccccc1)c1ccccc1)C(C)(C)C | active: 12.6 µM | –
11 | CC(=O)N1CCCc2cc(S(=O)(=O)N3CCCC(C(=O)NC(C)C)C3)ccc21 (stereo not drawn) | inactive | –
12 | COc1ccc(N2CCN(C(=O)c3cc(S(=O)(=O)N4CCCCCC4)ccc3OC)CC2)cc1 | inconclusive [inhibitor, single point] | –
13 | Cc1ccc(N(Cc2cc3cc(C)ccc3[nH]c2=O)C(=O)c2cccs2)cc1 | inconclusive [inhibitor, single point] | –
14 | COC(=O)c1ccccc1NC(=O)Cn1c(=O)n(Cc2ccccc2)c(=O)c2c(C)c(C)sc21 | inactive | –
15 | CSc1ncccc1C(=O)Nc1cccc(S(=O)(=O)N2CCCCC2)c1 | inconclusive [inhibitor, single point] | –
16 | Cc1cc(C)cc(NC(=S)NCC2CCN(C(C)c3ccccc3)C2)c1 (stereo not drawn) | inconclusive [inhibitor, single point] | –
17 | COCCCNC(=O)c1c[nH]c2ccc(S(=O)(=O)N(C)c3ccccc3C)cc2c1=O | inconclusive [inhibitor, full curve] | –
18 | CC(C)CCNC(=S)NC1CCCC1 | inconclusive [inhibitor, single point] | –
19 | CCC1(C)NC(=O)N(CC(=O)N2CCC(Cc3ccccc3)CC2)C1=O (stereo not drawn) | inactive | –
20 | Cc1ccc(NC(=S)C2=C(O)c3ccccc3N(C)S2(=O)=O)cc1 | inconclusive [inhibitor, single point] | –
21 | Cc1cccc(-c2ccc3c(c2)C2CC3CCN2C(=O)OCc2ccccc2)c1 (stereo not drawn) | inconclusive [inhibitor, single point] | –
22 | CC(=O)c1cc(CC=C(C)C)c(O)cc1O | inconclusive [inhibitor, partial curve, poor fit] | –
23 | CC(C)C(C)(C#N)NC(=O)CSc1nc2scc(-c3ccc(F)cc3)c2c(=O)n1Cc1ccccc1 (stereo not drawn) | inconclusive [inhibitor, single point] | –

Row | SMILES | Potency | activity change, negative = growth inhibition
24 | Cn1c(=O)n(C)c2cc(NS(=O)(=O)c3ccccc3)ccc21 | inconclusive [inhibitor, single point] | –
25 | Cc1ccc([N+](=O)[O-])cc1N(CC(=O)Nc1ccc(S(=O)(=O)Nc2cccc(C(F)(F)F)c2)cc1)S(C)(=O)=O | inconclusive [inhibitor, single point] | –
26 | CCCCNC(=O)C1(C)CCN1C(=O)c1cc(-c2cccs2)oc1C (stereo not drawn) | active: 1.64 µM | –
27 | COc1ccc2cc(C)c3nnc(SCC(=O)Nc4nc(-c5ccc(F)cc5)cs4)n3c2c1 | active: 20.6 µM | –
28 | O=C(CSc1nnc(CNC(=O)C23CC4CC(CC(C4)C2)C3)n1-c1ccccc1)Nc1ccccc1 | inconclusive [inhibitor, single point] | –
29 | COc1ccc(-c2nnc(SCCOc3ccccc3C)o2)cc1OC | inconclusive [inhibitor, single point] | –
30 | O=C(Nc1ccccc1-c1nnn(CC(=O)N2CCCc3ccccc32)n1)c1cccc(Cl)c1 | inconclusive [inhibitor, single point] | –
31 | CCOC(=O)Nc1ccc(C(=O)Oc2ccccc2)c(O)c1 | – | inconclusive: -37.5% [inhibitor]
32 | O=S(=O)(c1ccc(Cl)cc1)c1nc(-c2cccs2)oc1SCc1ccccc1F | active: 16.4 µM | –
33 | CCC(C)c1ccccc1N1CC(C(=O)Nc2cccc(S(=O)(=O)N3CCOCC3)c2)CC1=O (stereo not drawn) | active: 18.4 µM | –
34 | CN(C(=O)c1cccc(NC(=O)Cc2cccc(NC(=O)C3CCCN(C(=O)C4CC4)C3)c2)c1)C1CCC1 (stereo not drawn) | inconclusive [inhibitor, single point] | –
35 | Cc1nc2ccccc2n1/N=C/c1ccc([N+](=O)[O-])s1 | active: 3.66 µM | –
36 | CCOC(=O)C1(C)CCCN(C(=O)c2ccccc2F)C1 (stereo not drawn) | inactive | –
37 | C=CCNC(=O)/C(=C/c1cn(-c2ccccc2)nc1-c1cccc([N+](=O)[O-])c1)NC(=O)c1ccccc1 | inactive | –
38 | COc1cccc(OC)c1OCCCCc1c(C)n[nH]c1C | active: 25.9 µM | –
39 | COCCCNC(=S)NNC(=O)C1CC1c1ccc(C(C)(C)C)cc1 (stereo not drawn) | active: 11.6 µM | –
40 | CCCOc1ccc(-c2cn3ccccc3n2)cc1[N+](=O)[O-] | – | inconclusive: -31.5% [inhibitor]
41 | Cc1cc(C)cc(OCCSc2nc3ccc(NC(=O)COc4ccccc4)cc3s2)c1 | inconclusive [inhibitor, single point] | –
42 | Cc1ccc2c(c1)nnn2C1CCN(CC(=O)NCCc2ccccc2)CC1 | inconclusive [inhibitor, single point] | –
43 | O=C(NN=Cc1ccc(N2CCOCC2)s1)c1ccc([N+](=O)[O-])cc1 | inconclusive [inhibitor, single point] | –
44 | CC1Sc2ccc(S(=O)(=O)CCC(=O)NCc3ccccc3)cc2NC1=O (stereo not drawn) | inconclusive [inhibitor, single point] | –
45 | O=C(CNC(=O)c1[nH]cnc1C(=O)N[C@@H](Cc1ccccc1)C(=O)OCc1ccccc1)OCc1ccccc1 | inconclusive [inhibitor, single point] | –
46 | CC(C)n1c(O)c(N=NC(=O)Cc2csc(N3CCOCC3)n2)c2ccccc21 | – | inconclusive: -30.9% [inhibitor]

Row | SMILES | Potency | activity change, negative = growth inhibition
47 | O=[N+]([O-])c1ccccc1S(=O)(=O)Nc1ccc(S(=O)(=O)N2CCCC2)cc1 | inactive | –
48 | CCc1ccc(C(C)NC(=O)c2ccc(F)cc2)cc1 (stereo not drawn) | inconclusive [inhibitor, single point] | –
49 | COc1ccc(CNC(=O)COC(=O)c2ccccc2OCC(=O)Nc2ccc(SC(F)F)cc2)cc1 | inconclusive [inhibitor, partial curve, poor fit] | –
50 | Cc1ccc(OCC(=O)Nc2nonc2-c2ccc(Br)cc2)cc1C | inconclusive [inhibitor, single point] | –
51 | Cc1cc(C)n(-c2nc(NCC3CCCO3)c3c4c(sc3n2)COC(C)(C)C4)n1 (stereo not drawn) | active: 5.17 µM | –
52 | Cc1ccc(CN2CC(C(=O)N3CCN(S(=O)(=O)c4ccccc4)CC3)CC2=O)cc1 (stereo not drawn) | inconclusive [inhibitor, single point] | –
53 | COc1ncccc1C(=O)N1CCCC(C(=O)c2cccc(OC(C)C)c2)C1 (stereo not drawn) | inconclusive [inhibitor, single point] | –
54 | COc1cc2c(cc1NC(=O)c1cccnc1)oc1ccccc12 | inconclusive [inhibitor, single point] | –
55 | CC1(C(=O)Nc2ccc3c(c2)OCCO3)CN(S(C)(=O)=O)CC(=O)N1CCCn1ccnc1 (stereo not drawn) | inactive | –
56 | O=C(COC(=O)c1ccccc1OCc1cccc(Br)c1)Nc1ccc(Br)cc1 | inconclusive [inhibitor, single point] | –
57 | Cc1ccsc1C(=O)N1CC(=O)Nc2ccccc21 | inconclusive [inhibitor, partial curve] | –
58 | COc1ccc(NC(=O)c2cccnc2N2CCCC2)cc1 | inconclusive [inhibitor, partial curve] | –
59 | NS(=O)(=O)c1ccc(N2N=C(c3ccc(Br)cc3)CC2c2ccc(F)cc2)cc1 (stereo not drawn) | inconclusive [inhibitor, single point] | –
60 | CC(c1ccccc1F)n1cc(C(=O)NCCCc2nc3ccccc3[nH]2)nn1 (stereo not drawn) | inactive | –
61 | CC1CCN(C(=O)CCc2ccc(Oc3cc([N+](=O)[O-])cc([N+](=O)[O-])c3)cc2)CC1 | inconclusive [inhibitor, single point] | –
62 | O=C(CCc1ccccc1)N/N=C\c1cc2c(cc1Br)OCO2 | inconclusive [inhibitor, single point] | –
63 | Cc1sc2ncnc(N3CCCCC3)c2c1C | inconclusive [inhibitor, single point] | –
64 | Cc1ccc(C(=O)N(Cc2nnc(-c3ccccc3Cl)o2)C2CC2)o1 | inconclusive [inhibitor, single point] | –
65 | COc1ccc(-c2ccc(NS(=O)(=O)c3cc(C)c(C)cc3C)cc2)nn1 | active: 20.6 µM | –
66 | O=C(CNS(=O)(=O)c1ccccc1)N1CCN(C(=O)c2ccco2)CC1 | – | inconclusive: -32.7% [inhibitor]
67 | O=C(c1ccc(F)cc1)C1CCN(CCn2c(=O)[nH]c3ccccc3c2=O)CC1 | active: 7.31 µM | –
68 | O=C(NCCc1ccc(Cl)cc1)C1CCN(S(=O)(=O)c2ccc(-n3cnnn3)cc2)CC1 | inconclusive [inhibitor, single point] | –
